Data from article PMC3526275.
No constants are given. Whether binding was seen depends on the method and setting. For some of these results: In cells and extracts the contact can be indirect. Some results given as binding are weak or reduced against the parent protein; the word gives no strength. Blank lines part the entries; values can stand above or below the substance they belong to.

The chains behind the UniProt entries cited, without tags or fusion partners. Where a name states a change or a piece, a line headed by the entry shows the natural chain unless it says otherwise. Residues count along the entry.
UniProt Q86YI8: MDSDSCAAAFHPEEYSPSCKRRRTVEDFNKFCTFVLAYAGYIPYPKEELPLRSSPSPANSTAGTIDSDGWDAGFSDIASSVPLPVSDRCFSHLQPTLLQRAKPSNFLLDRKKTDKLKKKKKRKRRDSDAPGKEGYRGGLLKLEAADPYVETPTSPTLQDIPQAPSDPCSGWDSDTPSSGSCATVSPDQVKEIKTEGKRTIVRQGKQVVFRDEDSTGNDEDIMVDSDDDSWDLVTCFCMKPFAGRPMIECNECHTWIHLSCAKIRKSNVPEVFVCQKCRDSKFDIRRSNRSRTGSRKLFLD
GST-SPOC1 1-100: residues 1-100 of Q86YI8
UniProt Q5DW34: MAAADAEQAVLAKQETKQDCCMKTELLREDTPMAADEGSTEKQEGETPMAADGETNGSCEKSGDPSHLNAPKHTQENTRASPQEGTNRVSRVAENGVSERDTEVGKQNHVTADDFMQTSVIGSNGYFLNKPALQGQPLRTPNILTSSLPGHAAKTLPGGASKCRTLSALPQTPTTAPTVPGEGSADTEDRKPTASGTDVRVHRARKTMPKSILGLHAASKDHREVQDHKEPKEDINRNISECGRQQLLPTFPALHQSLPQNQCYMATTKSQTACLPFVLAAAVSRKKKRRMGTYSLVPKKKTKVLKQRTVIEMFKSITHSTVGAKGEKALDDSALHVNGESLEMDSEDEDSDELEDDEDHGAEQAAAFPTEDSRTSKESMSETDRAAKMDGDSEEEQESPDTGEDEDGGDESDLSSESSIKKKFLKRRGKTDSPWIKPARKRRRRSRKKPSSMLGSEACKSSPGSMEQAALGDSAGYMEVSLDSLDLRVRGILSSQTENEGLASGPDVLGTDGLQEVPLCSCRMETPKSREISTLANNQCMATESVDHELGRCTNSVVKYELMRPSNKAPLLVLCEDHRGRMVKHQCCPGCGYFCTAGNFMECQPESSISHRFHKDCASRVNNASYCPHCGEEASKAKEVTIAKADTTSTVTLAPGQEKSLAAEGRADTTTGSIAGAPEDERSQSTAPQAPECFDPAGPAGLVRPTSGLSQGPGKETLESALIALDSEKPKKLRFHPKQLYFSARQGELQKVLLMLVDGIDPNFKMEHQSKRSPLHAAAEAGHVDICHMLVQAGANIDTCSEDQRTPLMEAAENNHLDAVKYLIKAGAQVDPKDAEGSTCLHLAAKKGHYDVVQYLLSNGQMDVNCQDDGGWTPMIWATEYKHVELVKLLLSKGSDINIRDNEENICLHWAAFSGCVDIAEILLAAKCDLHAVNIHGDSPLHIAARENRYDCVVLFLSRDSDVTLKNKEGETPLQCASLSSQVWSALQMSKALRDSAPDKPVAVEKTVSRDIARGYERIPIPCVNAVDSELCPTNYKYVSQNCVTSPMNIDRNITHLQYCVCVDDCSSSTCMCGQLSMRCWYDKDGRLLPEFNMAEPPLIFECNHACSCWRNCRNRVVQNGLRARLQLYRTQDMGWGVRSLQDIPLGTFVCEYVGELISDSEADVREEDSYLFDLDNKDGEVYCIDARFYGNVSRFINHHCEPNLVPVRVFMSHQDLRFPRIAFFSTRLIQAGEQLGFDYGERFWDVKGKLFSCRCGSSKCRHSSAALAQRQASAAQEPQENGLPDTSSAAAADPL
UniProt Q8K2W6: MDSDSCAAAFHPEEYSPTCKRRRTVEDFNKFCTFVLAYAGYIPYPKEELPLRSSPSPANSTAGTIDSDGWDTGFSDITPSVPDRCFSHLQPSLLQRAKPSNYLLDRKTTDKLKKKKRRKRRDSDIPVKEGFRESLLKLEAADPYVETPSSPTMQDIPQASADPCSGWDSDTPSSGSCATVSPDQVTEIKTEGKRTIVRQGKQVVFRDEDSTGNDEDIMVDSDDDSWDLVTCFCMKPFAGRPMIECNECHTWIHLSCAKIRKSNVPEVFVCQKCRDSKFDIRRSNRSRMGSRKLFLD
UniProt Q96KQ7: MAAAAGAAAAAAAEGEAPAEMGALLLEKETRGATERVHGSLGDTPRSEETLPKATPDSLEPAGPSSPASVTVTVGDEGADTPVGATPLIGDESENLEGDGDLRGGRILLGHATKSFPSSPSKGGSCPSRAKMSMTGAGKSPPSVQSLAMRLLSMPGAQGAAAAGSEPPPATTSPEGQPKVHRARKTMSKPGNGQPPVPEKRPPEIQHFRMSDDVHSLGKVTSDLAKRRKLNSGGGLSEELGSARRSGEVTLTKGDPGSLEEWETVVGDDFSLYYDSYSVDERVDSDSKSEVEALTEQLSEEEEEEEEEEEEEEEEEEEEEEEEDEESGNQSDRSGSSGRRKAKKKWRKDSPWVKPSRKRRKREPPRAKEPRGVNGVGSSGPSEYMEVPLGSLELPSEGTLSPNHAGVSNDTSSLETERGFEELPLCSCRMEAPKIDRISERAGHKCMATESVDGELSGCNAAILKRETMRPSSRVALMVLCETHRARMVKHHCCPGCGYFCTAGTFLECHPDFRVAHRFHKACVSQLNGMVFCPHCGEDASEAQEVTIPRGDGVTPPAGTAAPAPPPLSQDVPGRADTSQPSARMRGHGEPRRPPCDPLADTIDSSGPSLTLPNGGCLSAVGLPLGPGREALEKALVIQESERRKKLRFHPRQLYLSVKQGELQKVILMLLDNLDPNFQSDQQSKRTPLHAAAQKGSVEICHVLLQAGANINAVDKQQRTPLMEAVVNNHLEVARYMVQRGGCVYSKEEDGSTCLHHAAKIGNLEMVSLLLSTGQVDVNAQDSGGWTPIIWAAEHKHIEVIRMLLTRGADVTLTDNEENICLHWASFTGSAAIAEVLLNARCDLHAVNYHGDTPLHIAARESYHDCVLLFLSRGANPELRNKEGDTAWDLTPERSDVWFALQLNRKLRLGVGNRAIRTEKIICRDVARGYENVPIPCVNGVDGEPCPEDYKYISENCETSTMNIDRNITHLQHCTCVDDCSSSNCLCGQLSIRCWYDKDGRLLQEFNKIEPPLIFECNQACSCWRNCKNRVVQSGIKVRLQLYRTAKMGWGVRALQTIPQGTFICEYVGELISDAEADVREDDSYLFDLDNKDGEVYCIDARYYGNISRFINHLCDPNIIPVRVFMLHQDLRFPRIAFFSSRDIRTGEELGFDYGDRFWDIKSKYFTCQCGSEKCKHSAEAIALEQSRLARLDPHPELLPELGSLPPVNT

How the values were obtained:
[1] = biological target: SPOC1 (endogenous, HeLa) (human (endogenous in HeLa)) (UniProt Q86YI8); experiment: co-IP; immunoprecipitation of endogenous SPOC1 from HeLa nuclear extracts with anti-SPOC1 or control antibody; immunoblot; extracts pretreated with DNase with or without RNase or Etbr
[2] = biological target: GLP (endogenous, C2C12) (mouse (endogenous in C2C12)) (UniProt Q5DW34); experiment: co-IP; immunoprecipitation of endogenous GLP or SUV39H1 from C2C12 cell extracts, control antibody alongside; immunoblot for GLP, SUV39H1, SETDB1 and SPOC1
[3] = biological target: T1, SUV39H1 (endogenous, C2C12) (mouse (endogenous in C2C12)) (UniProt O54864); experiment: as above
T1 sequence: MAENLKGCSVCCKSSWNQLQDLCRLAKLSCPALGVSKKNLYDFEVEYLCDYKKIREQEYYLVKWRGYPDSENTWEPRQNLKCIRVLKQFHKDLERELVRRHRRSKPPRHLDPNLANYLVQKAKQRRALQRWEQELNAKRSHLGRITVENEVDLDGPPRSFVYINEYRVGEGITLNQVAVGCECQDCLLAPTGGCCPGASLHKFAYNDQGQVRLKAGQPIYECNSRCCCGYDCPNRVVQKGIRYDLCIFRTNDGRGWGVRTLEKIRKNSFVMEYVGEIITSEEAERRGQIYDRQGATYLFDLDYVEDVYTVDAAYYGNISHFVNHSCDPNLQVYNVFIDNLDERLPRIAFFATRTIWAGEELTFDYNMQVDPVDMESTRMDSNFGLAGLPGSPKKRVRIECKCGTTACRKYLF

[4] = biological target: T2, ProtA-KAP-1 (amino acids 1–400) (human) (UniProt Q13263); experiment: LUMIER (luciferase co-precipitation); protein A and renilla luciferase fusion proteins coexpressed in HEK293 cells; protein A fusions captured on IgG-coated magnetic beads; copurified luciferase activity as Z-score, Z-score ≥ 0.5 indicates an interaction
T2 sequence: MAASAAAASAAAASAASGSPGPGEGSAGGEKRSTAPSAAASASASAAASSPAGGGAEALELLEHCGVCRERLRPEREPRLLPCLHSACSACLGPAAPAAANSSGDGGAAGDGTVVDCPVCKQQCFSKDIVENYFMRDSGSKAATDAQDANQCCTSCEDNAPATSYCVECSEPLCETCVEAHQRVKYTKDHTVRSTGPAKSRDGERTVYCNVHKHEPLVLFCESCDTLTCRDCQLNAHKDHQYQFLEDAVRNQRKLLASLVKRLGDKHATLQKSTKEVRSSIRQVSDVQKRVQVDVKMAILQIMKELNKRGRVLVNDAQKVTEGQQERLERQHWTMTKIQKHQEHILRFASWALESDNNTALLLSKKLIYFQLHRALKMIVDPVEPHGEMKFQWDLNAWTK

GST-SPOC1 1-100 (human) = GST-SPOC1 1-100 (human) (UniProt Q86YI8); experiment: pull-down; recombinant GST-fusion proteins on glutathione beads incubated with U2OS chromatin extracts (benzonase-treated, 150 mM NaCl, 25 mM HEPES, 0.1% NP-40) for 1–2 h at 4°C; washed three times with PBS; immunoblot for KAP-1; only the target purified
[5] = biological target: GST-SPOC1 full-length (human) (UniProt Q86YI8); experiment: as above
[6] = biological target: ProtA-SPOC1 (amino acids 1–300) (human) (UniProt Q86YI8); experiment: LUMIER (luciferase co-precipitation); protein A and renilla luciferase fusion proteins coexpressed in HEK293 cells; protein A fusions captured on IgG-coated magnetic beads; copurified luciferase activity as Z-score, Z-score ≥ 0.5 indicates an interaction

binding [2]: binds
binding [3]: binds
Substance: SPOC1 (endogenous, C2C12) (from UniProt Q8K2W6 1-296)

binding (GST-SPOC1 1-100 (human)): no binding
binding [5]: binds
Substance: KAP-1 (endogenous, U2OS) (from UniProt Q13263 1-835)

Continued, substance first:

Substance: G9A (endogenous, HeLa) (from UniProt Q96KQ7 1-1210) (enzyme)
binding [1]: binds

Substance: Luc-SPOC1 (amino acids 150–300) (from UniProt Q86YI8 150-300) (domain or fragment)
binding [4]: binds

Substance: Luc-KAP-1 (amino acids 1–835) (from UniProt Q13263 1-835)
binding [6]: binds
